# From the supplement of paper PMC4604168 (melanoma cell lines)
# Some of the results follow. Most values come without repeats; read them as rough.
# Assays:
# Test in all cases: cell count relative to DMSO control; melanoma cells; higher = more viable cells
# Details in all cases: library dose: standard library concentration; 72 h
# G361 = tested on: G361
# IPC-298 = tested on: IPC-298
# IST-MEL1 = tested on: IST-MEL1
# LOXIMVI = tested on: LOXIMVI
# MEL-HO = tested on: MEL-HO
# MeWo = tested on: MeWo
# RPMI7951 = tested on: RPMI7951
# RVH-421 = tested on: RVH-421
# LB2518-MEL = tested on: LB2518-MEL
# MZ2-MEL = tested on: MZ2-MEL
# 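Also: cells treated in 1,536-well plates, then fixed and DAPI-stained, with nuclei counted from automated high-throughput microscope images.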
SMILES,cell count (G361) [%],cell count (IPC-298) [%],cell count (IST-MEL1) [%],cell count (LOXIMVI) [%],cell count (MEL-HO) [%],cell count (MeWo) [%],cell count (RPMI7951) [%],cell count (RVH-421) [%],cell count (LB2518-MEL) [%],cell count (MZ2-MEL) [%]
"O=C(Nc1cccc(Cl)c1)Nc1ncc(CCNc2ncnc3ccsc23)s1 + O=C(O)c1ccc(-c2c[nH]c3ncc(-c4ccccc4)cc23)cc1C1CCCC1 [GSK650394] (first compound 0.004 µM, partner dose 0.8 µM)",55.7,66.6,46.2,80,64.4,54.6,49.5,73.2,–,–
"Cn1cncc1[C@@](N)(c1ccc(Cl)cc1)c1ccc2c(c1)c(-c1cccc(Cl)c1)cc(=O)n2C [tipifarnib] + COc1cc2ncnc(Nc3ccc(Oc4ccccc4)cc3)c2cc1OC [SrcI1] (first compound 0.05 µM, partner dose 10 µM)",29.5,62.7,60.5,68.2,79.5,55.6,30.9,94.1,64.7,76.4
"O=c1[nH]nc(Sc2ncc([N+](=O)[O-])s2)n1-c1ccc2c(c1)OCCO2 + Cc1cc([N+](=O)[O-])ccc1NS(=O)(=O)c1cc(Cl)ccc1Cl [FH535] (first compound 1 µM, partner dose 5 µM)",38.1,52.9,59.7,60.3,55.2,56.7,71.3,65.9,–,–
"COc1cc(Nc2ncc(F)c(Nc3ccc4c(n3)NC(=O)C(C)(C)O4)n2)cc(OC)c1OC [Tamatinib] + O=C1NC(=O)/C(=C/c2ccc(-c3ccc(F)cc3O)o2)S1 [AS252424] (first compound 2 µM, partner dose 5 µM)",57.3,75.9,88,34.4,59.1,61.7,33.1,86.7,70,73.8
"C[C@@H]1CCN(C(=O)CC#N)C[C@@H]1N(C)c1ncnc2[nH]ccc12 + Oc1nc(-c2ccc(C(F)(F)F)cc2)nc2c1CSCC2 [XAV939] (first compound 5 µM, partner dose 10 µM)",95.6,83.9,87.8,92.5,79.7,99.5,66.5,98.8,82.5,108
"O=c1[nH]nc(Sc2ncc([N+](=O)[O-])s2)n1-c1ccc2c(c1)OCCO2 + CS(=O)(=O)CCNCc1ccc(-c2ccc3ncnc(Nc4ccc(OCc5cccc(F)c5)c(Cl)c4)c3c2)o1 [lapatinib] (first compound 1 µM, partner dose 4 µM)",82.3,88.4,102,95.5,84,66.4,58.2,74.2,–,–
"O=C(Nc1cccc(Cl)c1)Nc1ncc(CCNc2ncnc3ccsc23)s1 + COC(=O)c1sccc1S(=O)(=O)Nc1ccc(Nc2ccccc2)cc1OC [GSK0660] (first compound 0.004 µM, partner dose 5 µM)",43.5,60.5,43.3,94.7,63.5,56.6,48.8,58.3,77.6,64.4
"COc1cc(Nc2ncc(F)c(Nc3ccc4c(n3)NC(=O)C(C)(C)O4)n2)cc(OC)c1OC [Tamatinib] + COc1ccc(-c2ccc3c(N4CCOCC4)nc(N4C[C@@H](C)O[C@@H](C)C4)nc3n2)cc1CO [KU0063794] (first compound 2 µM, partner dose 0.1 µM)",80.9,66.4,76.3,26.2,69,52.9,31.3,72.4,87,57.6
"O=C(O)c1ccc(-c2c[nH]c3ncc(-c4ccccc4)cc23)cc1C1CCCC1 + NCC(=O)Nc1ccc(-n2nc(C(F)(F)F)cc2-c2ccc3c(ccc4ccccc43)c2)cc1 [OSU03012] (first compound 0.8 µM, partner dose 5 µM)",52.8,54.6,81.1,99.9,82.7,80.7,104,73.3,83.2,88.4
"C[C@@H]1CCN(C(=O)CC#N)C[C@@H]1N(C)c1ncnc2[nH]ccc12 + COc1cc(N2CCC(N3CCN(C)CC3)CC2)ccc1Nc1ncc(Cl)c(Nc2ccccc2S(=O)(=O)C(C)C)n1 [NVP-TAE684] (first compound 5 µM, partner dose 0.4 µM)",93.4,93,101,83.7,90,66.7,61.1,90.4,96.1,84.6
"CC1(C)NC(=O)N(c2ccc([N+](=O)[O-])c(C(F)(F)F)c2)C1=O [nilutamide] + CCCCCCCCCCCC1=C(O)C(=O)C=C(O)C1=O [Embelin] (first compound 5 µM, partner dose 6 µM)",84.3,68.7,74.5,108,83.2,87.1,87.2,71.9,93.6,110
"COc1cc(Nc2ncc(F)c(Nc3ccc4c(n3)NC(=O)C(C)(C)O4)n2)cc(OC)c1OC [Tamatinib] + O=C(O)c1ccc(-c2c[nH]c3ncc(-c4ccccc4)cc23)cc1C1CCCC1 [GSK650394] (first compound 2 µM, partner dose 0.8 µM)",62.9,73.8,44.3,37.2,57.8,69.6,42.5,69.3,90,81.6
"O=C(Nc1cccc(Cl)c1)Nc1ncc(CCNc2ncnc3ccsc23)s1 + NCC(=O)Nc1ccc(-n2nc(C(F)(F)F)cc2-c2ccc3c(ccc4ccccc43)c2)cc1 [OSU03012] (first compound 0.004 µM, partner dose 5 µM)",67.5,59.9,49.3,69.8,79.6,70.3,53.2,80,65.4,72
"O=c1[nH]nc(Sc2ncc([N+](=O)[O-])s2)n1-c1ccc2c(c1)OCCO2 + CNC(=O)c1cc(Oc2ccc(NC(=O)Nc3ccc(Cl)c(C(F)(F)F)c3)cc2)ccn1 [sorafenib] (first compound 1 µM, partner dose 2 µM)",91,72.8,121,158,97.2,83.3,84.6,106,75.9,104
"Cn1cncc1[C@@](N)(c1ccc(Cl)cc1)c1ccc2c(c1)c(-c1cccc(Cl)c1)cc(=O)n2C [tipifarnib] + COc1cc(N2CCC(N3CCN(C)CC3)CC2)ccc1Nc1ncc(Cl)c(Nc2ccccc2S(=O)(=O)C(C)C)n1 [NVP-TAE684] (first compound 0.05 µM, partner dose 0.4 µM)",60.7,68,84,144,81.8,60.8,44.6,73.7,57,70.2
"O=c1[nH]nc(Sc2ncc([N+](=O)[O-])s2)n1-c1ccc2c(c1)OCCO2 + C=CCn1c(=O)c2cnc(Nc3ccc(N4CCN(C)CC4)cc3)nc2n1-c1cccc(C(C)(C)O)n1 [MK1775] (first compound 1 µM, partner dose 0.1 µM)",87.1,84.6,76,95.9,93.9,76.3,60.9,71.5,–,–
"COc1cc(Nc2ncc(F)c(Nc3ccc4c(n3)NC(=O)C(C)(C)O4)n2)cc(OC)c1OC [Tamatinib] + Cn1cc(/C=C2\C(=O)Nc3cccnc32)c2ccccc21 [GW441756] (first compound 2 µM, partner dose 2 µM)",71,74.4,78.5,43.8,80.3,72.9,54.5,105,72.4,68
"O=C(Nc1cccc(Cl)c1)Nc1ncc(CCNc2ncnc3ccsc23)s1 + CC(C)CCN1c2nc(Nc3cc(F)c(O)c(F)c3)ncc2N(C)C(=O)C1C [BID1870] (first compound 0.004 µM, partner dose 1 µM)",36.1,56.5,35.6,76.8,69,39.4,41.7,54,83,59
"O=c1[nH]nc(Sc2ncc([N+](=O)[O-])s2)n1-c1ccc2c(c1)OCCO2 + c1cc(-c2cnn3cc(-c4ccc(OCCN5CCCCC5)cc4)cnc23)ccn1 [Dorsomorphin] (first compound 1 µM, partner dose 2 µM)",53.2,91,77.9,104,81.9,74.1,67,94.9,66.2,72.3
"O=C(Nc1cccc(Cl)c1)Nc1ncc(CCNc2ncnc3ccsc23)s1 + O=C(O)C(=O)Nc1sc2c(c1C(=O)O)CCNC2 [TCS401] (first compound 0.004 µM, partner dose 8.33333 µM)",67.1,86.7,74.3,97.8,75.3,53.8,71.6,80.7,71.7,77.9
